Over roughly 33,000 sequences, “E-score (-0.5 to 0.5)” has its median near -0.032; the highest 2% begin near 0.36. The list shows a part of the results.
biological target: T1, Sko1 (UniProt Q02100); test: PBM E-score (8-mer binding enrichment) (E-score (-0.5 to 0.5)); higher = stronger / more preferred TF binding; most listed sequences are background and not binding sites; conditions: protein concentration: 200 nM; construct: GST-full length
T1 sequence: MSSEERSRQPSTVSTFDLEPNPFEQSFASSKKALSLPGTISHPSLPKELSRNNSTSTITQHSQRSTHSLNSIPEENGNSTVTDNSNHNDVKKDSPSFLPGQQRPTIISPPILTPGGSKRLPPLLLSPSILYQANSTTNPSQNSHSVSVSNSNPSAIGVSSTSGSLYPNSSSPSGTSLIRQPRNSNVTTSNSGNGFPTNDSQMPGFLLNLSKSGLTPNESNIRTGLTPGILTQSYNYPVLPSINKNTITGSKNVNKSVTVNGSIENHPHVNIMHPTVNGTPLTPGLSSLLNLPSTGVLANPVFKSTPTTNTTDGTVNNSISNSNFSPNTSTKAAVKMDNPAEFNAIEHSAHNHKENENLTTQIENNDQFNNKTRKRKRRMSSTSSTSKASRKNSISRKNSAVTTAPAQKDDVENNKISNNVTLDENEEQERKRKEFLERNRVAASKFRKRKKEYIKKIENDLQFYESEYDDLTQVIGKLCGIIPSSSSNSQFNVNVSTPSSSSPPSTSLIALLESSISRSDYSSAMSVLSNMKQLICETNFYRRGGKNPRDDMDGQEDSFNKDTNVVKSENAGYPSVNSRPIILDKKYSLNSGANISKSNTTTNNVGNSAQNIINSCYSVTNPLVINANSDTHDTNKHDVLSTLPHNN
Summary of the method: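 Yeast transcription factors, full-length or as DNA-binding domains, were expressed with a GST tag using PURExpress in vitro transcription/translation. At about 100-200 nM they were applied to universal all-10-mer Agilent arrays, double-stranded by primer extension on fresh or once-stripped slides. Fluorescent anti-GST detected bound protein, and masliner normalised the scans. E-scores for ungapped eight-base words, pooled with reverse complements, came from the Universal PBM Analysis Suite.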

| Sequence | PBM E-score |
| --- | --- |
| CCAATAGG | -0.12 |
| GAAACGTC | 0.385 |
| AGAGTGAT | -0.116 |
| GTTAATTA | 0.281 |
| CTTTAACA | 0.0632 |
| AGCCGGGA | -0.121 |
| ACGGTTCT | -0.0413 |
| ATGTCAGC | 0.129 |
| ATGTTCTC | 0.0399 |
| CTACTTTC | 0.0651 |
| CGCGGCGA | -0.0754 |
| AACGGACG | -0.0457 |
| ATCGAGTA | -0.00257 |
| AGTTATGA | 0.123 |
| TCCACTCA | -0.132 |
| CTTTGTGC | 0.0814 |
| ATACCCTC | -0.0318 |
| CCGCATTA | -0.0763 |
| AAAATAAA | 0.198 |
| CGGTCGAC | -0.137 |
| GTGTGCGA | -0.0235 |
| GTTGAGGA | -0.0514 |
| TGATGCCA | 0.172 |
| CGGTTGTA | -0.164 |
| ATTCAAAA | 0.133 |

| Sequence | PBM E-score |
| --- | --- |
| CGGCGAAC | -0.28 |
| ACGAACTA | 0.228 |
| CTCTTCAA | -0.154 |
| GATTTTCC | -0.127 |
| AAACTGAC | 0.228 |
| ACTAATAG | 0.0895 |
| TCGGTCCA | 0.00791 |
| ATGGCGAC | -0.121 |
| GTACTGTA | -0.105 |
| AGCGAAGA | -0.11 |
| AAGCTCCG | -0.18 |
| AAACACAG | 0.0223 |
| TCGTCAAA | 0.281 |
| CCCGTTAC | 0.0449 |
| CTACGGTA | 0.0952 |
| CGGGGTGC | -0.333 |
| GAGATGTA | 0.105 |
| CTGCTGTA | -0.133 |
| GAAGAAGA | -0.109 |
| CCTGCTTA | -0.0415 |
| AAACTGCT | -0.127 |
| CTTGTTAA | -0.0398 |
| AACTGCCT | -0.0481 |
| ATCCCCTC | -0.162 |
| CGTACGAA | 0.269 |

| Sequence | PBM E-score |
| --- | --- |
| AAACTGTC | -0.107 |
| CTCCGGGA | -0.308 |
| AGATGCGA | -0.116 |
| CCAAGAGA | -0.252 |
| CATCTGCG | -0.0247 |
| CGTTTTGA | 0.189 |
| AGTTGAAA | 0.0183 |
| CCCTCTCC | -0.321 |
| ATATGTGA | 0.187 |
| CCGACAAG | -0.21 |
| CCAGTGGA | -0.17 |
| CTTCACAC | 0.0799 |
| ATAGTAGG | -0.0114 |
| AGGTTCAA | 0.124 |
| GGGCGGAC | -0.251 |
| TACCTAAA | 0.128 |
| CTGTGCGC | -0.113 |
| TGGCACAA | 0.0381 |
| ATAACTGA | 0.0367 |
| GTTGAAAC | 0.121 |
| GAGTAATA | 0.183 |
| ACATTACT | 0.0825 |
| AGACTCTC | -0.149 |
| CCATTAAC | 0.154 |
| TCGTGGAA | 0.0519 |

| Sequence | PBM E-score |
| --- | --- |
| CGAGATTA | 0.238 |
| AAGAAGCC | -0.0816 |
| AACGTCAT | 0.493 |
| AGTTAGGC | -0.0067 |
| AGCATCAA | 0.0245 |
| ACGTCCGG | 0.201 |
| GGGCTTTA | -0.328 |
| CACTTGTC | -0.18 |
| ACGCTGAA | -0.0879 |
| CTAGCCGA | -0.202 |
| TAACTCCA | -0.0944 |
| GCGCCTCC | 0.00621 |
| GTCCAACA | 0.046 |
| CTTATGGC | -0.0335 |
| AAGACCGT | -0.126 |
| AGTCCCGA | -0.274 |
| CTCGCTGC | -0.155 |
| ACCTAAGG | -0.0785 |
| ATGGGATG | -0.134 |
| CTGGCACA | -0.071 |
| ATTTTCGC | 0.0516 |
| AATAGCAC | -0.195 |
| GCGTAGTA | 0.279 |
| CAAATGAC | 0.294 |
| AACTCAAC | 0.0483 |

| Sequence | PBM E-score |
| --- | --- |
| GCCAGGCC | -0.373 |
| GTCATCAA | 0.33 |
| AAGCGAGA | -0.145 |
| ACCTCGGA | -0.19 |
| GACCCGGC | -0.297 |
| GCGGCACA | -0.283 |
| CACGTTGA | 0.25 |
| GGTTCGGA | -0.37 |
| TCTACAGA | 0.0146 |
| AGCAAACG | 0.0079 |
| ATGAGCGA | 0.102 |
| GTTTAGCA | 0.0596 |
| ATTTAACC | 0.0003 |
| AACAACTA | 0.0662 |
| TCCAGCGA | -0.12 |
| CGAGGAGC | -0.189 |
| GCAACTAC | 0.0852 |
| GCTAGCCA | -0.263 |
| CACGACTA | -0.0227 |
| CTCTATGC | -0.0516 |
| GTTACCGA | -0.129 |
| TAGAACAA | 0.0369 |
| CACGGGCC | -0.352 |
| CGGATTAA | 0.0258 |
| CGCGTATA | 0.244 |

| Sequence | PBM E-score |
| --- | --- |
| GTCCGAAC | -0.26 |
| AGGGGCAC | -0.0652 |
| CACAAACG | 0.191 |
| CCGTGGAC | -0.231 |
| CGGGATAA | 0.0877 |
| AGTTCAGG | -0.176 |
| AGTGGACA | 0.0063 |
| ATCTAGCG | -0.137 |
| CCTTTGGC | -0.297 |
| CACTAGAA | 0.023 |
| CGAATTTC | 0.195 |
| CACCTCCG | -0.239 |
| CCGGCGGC | -0.271 |
| CACGACAC | 0.0587 |
| CCACAAGA | -0.179 |
| ATAGCATG | 0.0235 |
| GGATAAAA | -0.0555 |
| AGACACAC | 0.148 |
| CGAACCCC | -0.174 |
| ATGTTGTC | 0.173 |
| AGGTGCGC | -0.224 |
| CTGAACCC | -0.261 |
| CCAACGAA | -0.0193 |
| GAATTCTA | 0.0361 |
| GTACTCCA | -0.0378 |

| Sequence | PBM E-score |
| --- | --- |
| GAAGTTCC | -0.302 |
| AAGTAACC | 0.0316 |
| GCGACAAC | 0.152 |
| GCCTAATA | 0.0113 |
| ATGCGTCA | 0.467 |
| TAGACCGA | -0.0276 |
| CCTCATTC | -0.0556 |
| CTATAAAA | 0.0949 |
| ATCGTATG | 0.313 |
| CCTTCCCA | -0.146 |
| AGTGGGAT | -0.0477 |
| AAGACCCA | -0.212 |
| AAATAACA | 0.204 |
| GCACACGC | 0.107 |
| CTAATACA | 0.101 |
| TAATCTAA | 0.145 |
| GATACGGC | -0.143 |
| CCAGAAGC | -0.316 |
| ATAGCCCC | -0.244 |
| GCCAAGCA | -0.0969 |
| CAGATCAA | -0.0787 |
| CCATCAAA | 0.00561 |

From the supplement of paper PMC3334620
